# Reference: the supplement of paper PMC5919970
# Where “and” joins values, the source holds several entries; their conditions need not be identical. Identical values can stand only once. Counter-ions that a name gives are not always drawn. Over roughly 2,000 compounds, “fractional viability relative to vehicle” has its median near 0.92; the lowest 2% begin near 0.11. This is one part of the list.
# Tested on: TYKNU
# Experiment: fractional viability relative to vehicle; TYKNU is a high-grade serous ovarian cancer line; higher = less growth inhibition
# Details: 72 h, genotype: OPA1 knockout (sgOPA1 #2)
# Method in brief: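 TYKNU control cells or lentiCRISPRv2 knockout derivatives were plated at 500 cells per well in duplicate into drug-stamped 384-well plates holding a ~2100-compound library at 2 or 10 μM. Culture was in RPMI 1640 with 10% FBS at 37 °C in 5% CO2, with 72 h of drug treatment. Viability was measured by Cell Titer Glo luminescence, and the averaged duplicate treatment wells were normalised to duplicate control wells at the same plate position.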
SMILES,fractional viability (2uM),fractional viability (10uM)
O=c1c(O)c(-c2ccc(O)cc2O)oc2cc(O)cc(O)c12 [Morin Hydrate],1.17,1.04
CCOC(=O)[C@H](CCc1ccccc1)N[C@H]1CS[C@H](c2cccs2)CN(CC(=O)O)C1=O [Temocapril HCl],1.14,0.841
COc1ccc(F)c(F)c1C(=O)c1cnc(NC2CCN(S(C)(=O)=O)CC2)nc1N,0.518,0.619
CCCCC(F)(F)[C@@]1(O)CC[C@H]2[C@@H](CC(=O)[C@@H]2CCCCCCC(=O)O)O1 [Lubiprostone],0.935,1.03
O=S(=O)(O)c1cc(O)ccc1O [Ethamsylate],0.911,0.925
O=C1C[C@@H](c2ccc(O)cc2)Oc2cc(O)cc(O)c21 [Naringenin],1.01,1.06
CCC(=O)O[C@]1(C(=O)CCl)[C@@H](C)C[C@H]2[C@@H]3CCC4=CC(=O)C=C[C@]4(C)[C@@]3(F)[C@@H](O)C[C@@]21C [Clobetasol propionate],1.03,0.908
C[C@H](CCC(=O)O)[C@H]1CC[C@H]2[C@@H]3[C@H](O)C[C@@H]4C[C@H](O)CC[C@]4(C)[C@H]3CC[C@]12C [Chenodeoxycholic Acid],1.05,1.07
COc1ccc([C@@H]2CC(=O)c3c(O)cc(O[C@@H]4O[C@H](CO)[C@@H](O)[C@H](O)[C@H]4O[C@@H]4O[C@@H](C)[C@H](O)[C@@H](O)[C@H]4O)cc3O2)cc1O [Neohesperidin],1.11,0.888
CC(=O)OCC(CCn1cnc2cnc(N)nc21)COC(C)=O [Famciclovir],0.98,0.781
CC(C)CC(CC(=O)NO)C(=O)N[C@@H](Cc1ccc2ccccc2c1)C(=O)N[C@@H](C)C(=O)NCCN (stereo partly specified),0.849,0.679
C=CC(=O)Nc1cccc(Oc2nc(Nc3ccc(N4CCN(C)CC4)cc3OC)ncc2Cl)c1,0.964,0.766
O=C(/C=C/c1ccc(O)c(O)c1)OCCc1ccccc1 [Caffeic Acid Phenethyl Ester],0.978,0.808
Nc1cc(C(Cl)=C(Cl)Cl)c(S(N)(=O)=O)cc1S(N)(=O)=O [Clorsulon],1.06,0.918
Cc1ccccc1CN1C2=NCCN2C(=O)C2=C1CCN(Cc1ccccc1)C2 [TIC10 Analogue],0.878,0.768
CC[C@H](C)C(=O)O[C@H]1CCC=C2C=C[C@H](C)[C@H](CC[C@@H]3C[C@@H](O)CC(=O)O3)[C@H]21 [Mevastatin],0.905,0.617
CC(=O)[C@]1(O)Cc2c(O)c3c(c(O)c2[C@@H](O[C@H]2C[C@H](N)[C@H](O)[C@H](C)O2)C1)C(=O)c1ccccc1C3=O [Idarubicin HCl],0.56,0.0586
O=c1oc2ccccc2c(O)c1Cc1c(O)c2ccccc2oc1=O [Dicoumarol],0.961,0.877
CS(=O)(=O)N1CCc2c(-c3cnc(N)nc3)nc(N3CCOCC3)nc21,0.65,0.319
Cc1nc(=O)c2cc(CN(C)c3ccc(C(=O)N[C@@H](CCC(=O)O)C(=O)O)s3)ccc2[nH]1 [Raltitrexed],0.762,0.722
O=C1c2ccccc2C(=O)c2c1ccc(O)c2O [Alizarin],1.19,0.838
CCCOc1ccn2c(C(C)=O)cc(-c3ccccc3S(C)(=O)=O)c2c1,0.832,0.937
CC(/C=C1\SC(=S)N(CC(=O)O)C1=O)=C\c1ccccc1 [Epalrestat],0.964,1.07

SMILES,fractional viability (2uM),fractional viability (10uM)
COc1ccc([C@]2(C#N)CC[C@@H](C(=O)O)CC2)cc1OC1CCCC1 [Cilomilast],1.16,0.971
O=C(NCCO)c1cccc(-c2cc(Nc3ccc(OC(F)(F)F)cc3)ncn2)c1,0.946,0.84
COCC[n+]1c2c(n(Cc3cnccn3)c1C)C(=O)c1ccccc1C2=O [YM155 (Sepantronium Bromide)],0.06,0.0555
O=S(=O)(O)NC1CCCCC1 [Cyclamic  acid],1.03,0.99
C#CC[C@H](c1nc2cc(Cl)ccc2c(=O)n1Nc1ccccc1)N(CCCN)C(=O)c1cccc(Cl)c1F,0.562,0.0443
C[C@@H]1CCN(C(=O)CC#N)C[C@@H]1N(C)c1ncnc2[nH]ccc12,0.867 and 0.972,1.07 and 1.17
Cc1cc2c(F)c(Oc3ncnn4cc(OC[C@@H](C)OC(=O)[C@H](C)N)c(C)c34)ccc2[nH]1,0.88,0.627
CCOC(=O)Nc1cc(-c2ccc(C)c(NS(C)(=O)=O)c2)nn2c(C)nnc12 [Bromosporine],0.92,0.534
Cc1ccc(Cl)c(Nc2ccccc2C(=O)O)c1Cl [Meclofenamate Sodium],0.888,0.932
O=C(NCCO[N+](=O)[O-])c1cccnc1 [Nicorandil],0.904,1
CN(C)CCOc1ccc(/C(=C(/CCCl)c2ccccc2)c2ccccc2)cc1 [Toremifene Citrate],1.22,0.875
CC(C)(Cc1ccc2ccccc2c1)NC[C@@H](O)COc1cccc(Cl)c1C#N,1.06,0.0653
O=C(c1cn(Cc2cncn2Cc2ccc(Br)cc2)cc1-c1cccc2ccccc12)N1CCOCC1,0.52,0.426
CCN1CCN(C(=O)N[C@@H](C(=O)N[C@@H]2C(=O)N3C(C(=O)O)=C(CSc4nnnn4C)CS[C@H]23)c2ccc(O)cc2)C(=O)C1=O [Cefoperazone],1.2,0.922
COc1cc(O)c(CC=C(C)C)c(O)c1C(=O)/C=C/c1ccc(O)cc1 [Xanthohumol],0.841,0.772
Cc1cc(/N=N/c2ccc(S(=O)(=O)Nc3ccccn3)cc2)c(N)cc1O,0.89,0.64
Oc1ccc(OCc2ccccc2)cc1 [Monobenzone],1.01,0.909
C[C@H]1C[C@H]2[C@@H]3CCC4=CC(=O)C=C[C@]4(C)[C@@]3(F)[C@@H](O)C[C@]2(C)[C@@]1(O)C(=O)CO [Betamethasone],1.12,1.2
O=C(O)/C=C/c1ccc(Cn2ccnc2)cc1 [Ozagrel],0.951,0.914
O=C(O)/C=C/c1ccc(Cn2ccnc2)cc1 [Ozagrel HCl],1.14,1.01
COc1cc2nccc(Oc3ccc(NC(=O)C4(C(=O)Nc5ccc(F)cc5)CC4)cc3)c2cc1OC,1.43,1.01
CNC(=O)c1cc(COc2nnc(Nc3ccc(Cl)cc3)c3ccoc23)ccn1 [Telatinib],0.834,0.653
CCCc1nc(C)c2c(=O)nc(-c3cc(S(=O)(=O)N4CCN(CC)CC4)ccc3OCC)[nH]n12 [Vardenafil HCl Trihydrate],1.02,0.915

SMILES,fractional viability (2uM),fractional viability (10uM)
Cc1cc(C)cc(C(=O)NOCCCCCC(=O)NO)c1,0.355,0.188
O=c1c(-c2ccc(O)cc2)coc2c([C@@H]3O[C@H](CO)[C@@H](O)[C@H](O)[C@H]3O)c(O)ccc12 [Puerarin],1.08,1.06
CCOc1nc2cccc(C(=O)O)c2n1Cc1ccc(-c2ccccc2-c2noc(=O)[nH]2)cc1 [Azilsartan],0.997,1.12
COCCOC(=O)C1=C(C)NC(C)=C(C(=O)OC/C=C/c2ccccc2)C1c1cccc([N+](=O)[O-])c1 (stereo unspecified) [Cilnidipine],1.09,0.851
Cc1cc([C@@H](C)Nc2ccccc2C(=O)O)c2nc(N3CCOCC3)cc(=O)n2c1,1.12,1.16
Cc1cnc(NC(=O)C2=C(O)c3ccccc3S(=O)(=O)N2C)s1 [Meloxicam],1.18,1.33
O=C(O)CCCc1ccccc1 [Sodium Phenylbutyrate],0.906,0.793
CC1(C)O[C@@H]2C[C@H]3[C@@H]4CCC5=CC(=O)C=C[C@]5(C)[C@@]4(F)[C@@H](O)C[C@]3(C)[C@]2(C(=O)CO)O1 [Triamcinolone Acetonide],0.992,1.02
C[C@@H]1C[C@H]2[C@@H]3CCC4=CC(=O)C=C[C@]4(C)[C@@]3(F)[C@@H](O)C[C@]2(C)[C@@]1(O)C(=O)CO [Dexamethasone (DHAP)],1.03,1.09
OC1(c2ccc(Cl)c(C(F)(F)F)c2)CCN(CCCC(c2ccc(F)cc2)c2ccc(F)cc2)CC1 [Penfluridol],0.625,0.178
CC(C)Oc1ccc(C(=O)N[C@H](CNC(=O)CN(C)C)Cc2ccc(-c3cn4cccc([C@H](C)O)c4n3)cc2)cc1Cl,0.78,0.703
Cc1nnc(NS(=O)(=O)c2ccc(N)cc2)s1 [Sulfamethizole],1.13,1.01
FC(F)c1nc2ccccc2n1-c1nc(N2CCOCC2)nc(N2CCOCC2)n1,1.18,0.638
COc1ccccc1S(=O)(=O)Nc1ccc2c(c1)CN(C)C(=O)N2,1.09,0.829
CCC(=O)c1c(O)cc(O)cc1O [Flopropione],0.909,0.914
C=CC(=O)Nc1ccc2ncnc(Nc3cccc(Br)c3)c2c1,0.982,0.588
CC1Cc2ccccc2N1NC(=O)c1ccc(Cl)c(S(N)(=O)=O)c1 (stereo unspecified) [Indapamide],1.06,0.876
O=C(/C=C\n1cnc(-c2cc(C(F)(F)F)cc(C(F)(F)F)c2)n1)NNc1ccccn1 [Verdinexor (KPT-335)],0.256,0.231
CCOCC(O)COc1ccc(NC(=O)CC[S+](C)C)cc1 (stereo unspecified) [Suplatast Tosylate],1.02,1.07
CN1CCN(CCOc2cc(OC3CCOCC3)c3c(Nc4c(Cl)ccc5c4OCO5)ncnc3c2)CC1 [Saracatinib (AZD0530)],1.05,1.03
CNc1cccc(CCOc2ccc3c(c2)CN(CC(F)(F)F)C(=O)[C@H](CC(=O)O)C3)n1,0.781,0.671
CCCCCCCCCCCCCCCC(=O)O[C@@H]1[C@@H](O)[C@@H](O)[C@@H]([C@H](NC(=O)[C@@H]2C[C@@H](CCC)CN2C)[C@H](C)Cl)O[C@@H]1SC [Clindamycin palmitate HCl],0.713,0.932
